# Results are given in words; binding and its absence hold for the method and conditions named. Some entries that bind do so weakly or less than the wild type.
# T1: Arabidopsis anaphase-promoting complex/cyclosome subunit 8 (AtAPC8) (Arabidopsis thaliana) (UniProt Q9STS3)
# T1 sequence: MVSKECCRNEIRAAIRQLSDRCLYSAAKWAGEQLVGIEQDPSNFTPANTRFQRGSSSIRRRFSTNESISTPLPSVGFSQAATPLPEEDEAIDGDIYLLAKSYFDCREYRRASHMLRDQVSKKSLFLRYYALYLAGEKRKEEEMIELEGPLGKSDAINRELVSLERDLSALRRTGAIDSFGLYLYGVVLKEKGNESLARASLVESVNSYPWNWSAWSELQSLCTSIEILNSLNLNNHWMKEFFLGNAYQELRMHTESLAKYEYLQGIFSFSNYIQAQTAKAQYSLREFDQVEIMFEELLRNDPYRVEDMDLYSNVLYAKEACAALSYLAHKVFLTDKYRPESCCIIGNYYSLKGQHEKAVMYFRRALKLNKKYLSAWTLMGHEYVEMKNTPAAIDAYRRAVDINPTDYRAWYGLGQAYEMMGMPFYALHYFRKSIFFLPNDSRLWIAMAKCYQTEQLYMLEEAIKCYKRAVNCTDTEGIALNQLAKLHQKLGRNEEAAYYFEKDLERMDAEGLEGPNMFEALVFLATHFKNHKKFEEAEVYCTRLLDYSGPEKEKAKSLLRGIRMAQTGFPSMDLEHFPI
# T2: APC8-D309N (product of the apc8-1 allele) (Arabidopsis thaliana) (UniProt Q9STS3)
# T2 sequence: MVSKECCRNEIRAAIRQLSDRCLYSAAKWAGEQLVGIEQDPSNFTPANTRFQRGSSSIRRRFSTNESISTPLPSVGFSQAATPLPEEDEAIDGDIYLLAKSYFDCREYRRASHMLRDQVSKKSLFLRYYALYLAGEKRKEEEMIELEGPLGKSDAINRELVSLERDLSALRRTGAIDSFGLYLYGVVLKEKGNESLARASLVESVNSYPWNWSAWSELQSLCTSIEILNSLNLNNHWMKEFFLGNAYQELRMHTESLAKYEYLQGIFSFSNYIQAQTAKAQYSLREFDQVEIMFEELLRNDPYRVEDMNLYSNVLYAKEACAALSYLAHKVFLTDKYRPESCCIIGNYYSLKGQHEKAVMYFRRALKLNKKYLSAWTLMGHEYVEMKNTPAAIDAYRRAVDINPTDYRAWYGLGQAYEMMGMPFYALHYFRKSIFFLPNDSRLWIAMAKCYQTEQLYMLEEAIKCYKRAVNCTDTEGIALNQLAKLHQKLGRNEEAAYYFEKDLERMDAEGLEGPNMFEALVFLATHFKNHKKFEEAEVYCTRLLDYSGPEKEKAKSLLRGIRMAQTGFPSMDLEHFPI
# How the values were obtained:
# [1] = target: T1, Arabidopsis anaphase-promoting complex/cyclosome subunit 8 (AtAPC8) (Arabidopsis thaliana); test: two-hybrid; APC8 and APC8-D309N in pGBKT7 (Y2H Gold strain), APC10 and CDC20.1 in pGADT7 (Y187 strain); mated on YPDA 48 h; selected on DDO (-Leu -Trp) 48 h and on QDO (-Leu -Trp -His -Ade, with X-alpha-Gal) 6 d
# [2] = target: T2, APC8-D309N (product of the apc8-1 allele) (Arabidopsis thaliana); test: as above
binding [1],binding [2],Binder
binds,binds,"Arabidopsis APC10 (AtAPC10) (protein, UniProt Q9ZPW2 1-192) MATESSESEEEGKISGGNYKLIIDDDLREMGKNAAWSVSSCKPGNGVTTLRDDNLETYWQSDGLQPHLINIQFQKKVKLQLVVLYVDFKLDESYTPSKISIRAGDGFHNLKEIKSVELVKPTGWVCLSLSGTDPRETFVNTFMLQIAILSNHLNGRDTHIRQIKVYGPRPNPIPHQPFQFTSMEFLTYSTLR"
binds,no binding,"Arabidopsis Cell Division Cycle 20.1 (AtCDC20.1) (protein, UniProt Q9SZA4 1-457) MDAGMNNTSSHYKTQARCPLQEHFLPRKPSKENLDRFIPNRSAMNFDYAHFALTEGRKGKDQTAAVSSPSKEAYRKQLAETMNLNHTRILAFRNKPQAPVELLPSNHSASLHQQPKSVKPRRYIPQTSERTLDAPDIVDDFYLNLLDWGSANVLAIALDHTVYLWDASTGSTSELVTIDEEKGPVTSINWAPDGRHVAVGLNNSEVQLWDSASNRQLRTLKGGHQSRVGSLAWNNHILTTGGMDGLIINNDVRIRSPIVETYRGHTQEVCGLKWSGSGQQLASGGNDNVVHIWDRSVASSNSTTQWLHRLEEHTSAVKALAWCPFQANLLATGGGGGDRTIKFWNTHTGACLNSVDTGSQVCSLLWSKNERELLSSHGFTQNQLTLWKYPSMVKMAELTGHTSRVLYMAQSPDGCTVASAAGDETLRFWNVFGVPETAKKAAPKAVSEPFSHVNRIR"
binds,–,"Arabidopsis anaphase-promoting complex/cyclosome subunit 8 (AtAPC8) (protein, UniProt Q9STS3 1-579) MVSKECCRNEIRAAIRQLSDRCLYSAAKWAGEQLVGIEQDPSNFTPANTRFQRGSSSIRRRFSTNESISTPLPSVGFSQAATPLPEEDEAIDGDIYLLAKSYFDCREYRRASHMLRDQVSKKSLFLRYYALYLAGEKRKEEEMIELEGPLGKSDAINRELVSLERDLSALRRTGAIDSFGLYLYGVVLKEKGNESLARASLVESVNSYPWNWSAWSELQSLCTSIEILNSLNLNNHWMKEFFLGNAYQELRMHTESLAKYEYLQGIFSFSNYIQAQTAKAQYSLREFDQVEIMFEELLRNDPYRVEDMDLYSNVLYAKEACAALSYLAHKVFLTDKYRPESCCIIGNYYSLKGQHEKAVMYFRRALKLNKKYLSAWTLMGHEYVEMKNTPAAIDAYRRAVDINPTDYRAWYGLGQAYEMMGMPFYALHYFRKSIFFLPNDSRLWIAMAKCYQTEQLYMLEEAIKCYKRAVNCTDTEGIALNQLAKLHQKLGRNEEAAYYFEKDLERMDAEGLEGPNMFEALVFLATHFKNHKKFEEAEVYCTRLLDYSGPEKEKAKSLLRGIRMAQTGFPSMDLEHFPI"
–,binds,"APC8-D309N (product of the apc8-1 allele) (protein, UniProt Q9STS3 1-579) MVSKECCRNEIRAAIRQLSDRCLYSAAKWAGEQLVGIEQDPSNFTPANTRFQRGSSSIRRRFSTNESISTPLPSVGFSQAATPLPEEDEAIDGDIYLLAKSYFDCREYRRASHMLRDQVSKKSLFLRYYALYLAGEKRKEEEMIELEGPLGKSDAINRELVSLERDLSALRRTGAIDSFGLYLYGVVLKEKGNESLARASLVESVNSYPWNWSAWSELQSLCTSIEILNSLNLNNHWMKEFFLGNAYQELRMHTESLAKYEYLQGIFSFSNYIQAQTAKAQYSLREFDQVEIMFEELLRNDPYRVEDMNLYSNVLYAKEACAALSYLAHKVFLTDKYRPESCCIIGNYYSLKGQHEKAVMYFRRALKLNKKYLSAWTLMGHEYVEMKNTPAAIDAYRRAVDINPTDYRAWYGLGQAYEMMGMPFYALHYFRKSIFFLPNDSRLWIAMAKCYQTEQLYMLEEAIKCYKRAVNCTDTEGIALNQLAKLHQKLGRNEEAAYYFEKDLERMDAEGLEGPNMFEALVFLATHFKNHKKFEEAEVYCTRLLDYSGPEKEKAKSLLRGIRMAQTGFPSMDLEHFPI"
